Reference: PubChem BioAssay AID1508624 (National Center for Advancing Translational Sciences (NCATS), 2021)
The whole screen tested about 48,000 compounds, of which about 120 (0.25%) were called active. Not shown: some 4% with an inconclusive outcome. The call rests on the fitted dose curve; in most records, active means well fitted activation curve with a large enough effect; inconclusive means small, poorly fitted or top-dose-only effect, or another doubt; inactive means no such curve, though single readings can be large or run the other way. This is one part of the list.

assay: Primary qHTS for Identification of Small Molecule Activators of Huntingtin-Antisense Promoter Activity; settings: HEK293 HTT-AS promoter firefly luciferase reporter, 24 h; series mostly up to 57.5 µM; activity change, positive = activation: at the top concentration; further: nearly all actives have a fitted effect of over 55% in size
Summary of the method: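 Luminescence was read after Dual-Glo reagent and a 10 min room-temperature incubation. Values were normalized to vehicle (0% activity) and zero RLU (-100% activity). Reporter HEK293 cells had been exposed to compounds (up to 57.5 uM final) for 24 h.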

Activity change, positive = activation, inactive:
CC(=O)N1CCc2c(sc3c2c(=O)n(-c2ccccc2)c(=O)n3CC(=O)Nc2ccccc2C)C1 -16.3%
COc1ccc(NC(=O)c2oc3ccccc3c2NC(=O)c2cc3ccccc3o2)cc1 8.96%
Cc1ccccc1S(=O)(=O)Cc1ccc(C(=O)NC2CCCCC2)o1 -29.5%
CCOc1ccc(NS(=O)(=O)c2ccc3[nH]cc(C(=O)N(C)Cc4ccccc4)c(=O)c3c2)cc1 -10.5%
COc1ccc2c(c1)CC(NC(=O)Nc1c(C)cc(C)cc1C)CO2 (stereo not given) -0.807%
Cc1ccc(OC(=O)c2cc(-c3ccc4c(c3)OCCO4)on2)cc1C 10.5%
CCOc1cccc2cc(-c3nc4ccc(C(=O)O)cc4[nH]3)c(=O)oc12 -51.1%
CCOc1ccc(NC(=O)CSc2nnc3scc(-c4ccc(Cl)cc4)n23)cc1 12.4%
COc1ccc(C)cc1S(=O)(=O)N1CCN(c2cccc(Cl)c2)CC1 -31.4%
Cc1cccc(-n2c3nc(=O)[nH]c(=O)c-3cc3c(Cl)cccc32)c1C -42.5%
Cc1cccc(NC(=O)CSc2nc(-c3ccccc3)cn2-c2ccccc2)c1C -10.5%
Cc1ccc(C)c(-n2c(CCC(=O)O)ccc2-c2ccc(Cl)cc2)c1 -13.3%
COc1ccc(Nc2ncc(C(=O)N3CCN(c4cccc(Cl)c4)CC3)c3ccccc23)cc1 -38%
COCCn1ccc2c(OCC(=O)Nc3cccc(OC)c3)cccc2c1=O -18.9%
Cc1nc(C)c(-c2ccc(SCC(=O)Nc3ccc(C)c(F)c3)nn2)s1 -22%
CCc1ccc2ncc3c(-c4ccc(F)cc4)nn(CC(=O)NCc4ccccc4)c3c2c1 2.38%
CC(C)CC(C(=O)NCc1ccc(F)cc1)N1Cc2ccccc2C1=O (stereo not given) -7.12%
Cc1ccc(C(C)C)c(OCC(=O)Nc2ccc(C(=O)OC3CCCCC3)cc2)c1 -9.03%
CCOc1ccc(-c2nc(SCC(=O)Nc3ccc(C)c(C)c3)n3[nH]c(=O)cc3n2)cc1 -18.5%
CCc1nnc(SCc2nc(-c3ccc(OC)c(OC)c3)oc2C)c2cc3sc(C)cc3n12 -9.11%
Cc1ccc(/C=C/c2onc(C)c2S(=O)(=O)N2CCC(C(=O)NCc3ccc(C)o3)CC2)cc1 -14.9%
COc1cccc(CNC(=O)Cc2ccc(NC(=O)N3CCCCc4ccccc43)cc2)c1OC -18%
COc1cc(NC(=O)CCc2nc(-c3cccs3)no2)cc(OC)c1OC -24.4%
Cc1ccc2c(=O)cc(C(=O)Nc3cccc(Cl)c3C)oc2c1C 8.75% [at 11.5 µM, percent change from vehicle, -100% = no light]
COc1ccc(OCCCCn2c(-c3ccc(Cl)cc3)nc3ccccc3c2=O)cc1 -1.91%
CCCCCOC(=O)CSc1ncnc2c1sc1nc(N3CCOCC3)c3c(c12)CCCC3 -5.85%
CCC(=O)N1CCN(c2ccc(-n3c(=O)ccc4cnc5ccc(-c6cnc7ccccc7c6)cc5c43)cc2C(F)(F)F)CC1 -17.7%
Cc1cc(Nc2cccc(C)c2C)n2cnnc2n1 -10.1%
Cc1ccc(C(=O)CC2(O)C(=O)N(CCc3ccccc3)c3ccc(Cl)cc32)cc1 (stereo not given) -42.9%
Cn1c(=O)c2c(-c3ccccc3Cl)n(-c3cc(Cl)ccc3O)cc2n(C)c1=O -21.4%
CCC(=O)N1c2nc(-c3ccco3)nn2C2(CCCCC2)[C@@H]2CCCC[C@@H]21 -15.2%
CCS(=O)(=O)N1CCc2cc(C(=O)Nc3cccc(Cl)c3C)ccc21 23.8%
CCOc1c(Cl)cc(Cl)cc1CNCCSc1nnnn1C -12.6%
COc1ccc(N2CCN(C(CNC(=O)C(=O)NCCCN(C)C)c3cccnc3)CC2)cc1 (stereo not given) -2.27%
O=C(Nc1cc2c(cc1C(=O)c1ccccc1Cl)OCCO2)c1ccc(Br)cc1 -15.5%
Cc1nc2c(-c3ccccc3)c(C)nn2c(C)c1CCC(=O)NCc1ccccc1Cl -8.46%
Cn1cnc(-c2cc3nccc(Oc4ccc(NC(=S)NC(=O)Cc5ccccc5)cc4F)c3s2)c1 -21%
Cc1ccc(CSCc2ccc(C(=O)NCCc3ccc(Cl)cc3)o2)cc1 -35%
Cc1cc(C)cc(N2C(=O)CSC23C(=O)N(CC(=O)NCCc2ccccc2)c2ccccc23)c1 (stereo not given) -26%
CC(C)Oc1ccc(CNC(=O)CN2C(=O)CCc3cc(S(=O)(=O)N4CCCCC4)ccc32)cc1 -20%
O=c1[nH]c(=O)c2[nH]c(=O)[nH]c2[nH]1 -11.4% [at 11.5 µM, percent change from vehicle, -100% = no light]
CCOC(=O)C1=C(CS(=O)(=O)c2ccc(C)cc2)NC(=O)NC1c1ccc(C(C)C)cc1 (stereo not given) -53.5%
CN(C(=O)c1ccc2c(c1)N(Cc1cccc(Cl)c1)C(=O)c1ccccc1S2=O)C1CCCCC1 (stereo not given) -32.3%
COc1ccc(NC(=O)CCS(=O)(=O)c2cccc3nonc23)cc1Cl -22.5%
COc1ccccc1NCc1cccn1-c1nnc(N2CCOCC2)s1 4.69%
Cc1oc2ncn(C)c(=O)c2c1C(=O)NC(C)c1ccccc1 (stereo not given) -18.7%
O=C(CSC1=Nc2ccccc2N=C(c2ccc(F)cc2)C1)NCc1ccc(F)cc1 -25.5%
Cc1ccc(C)c(CN2C(=O)CSc3ccc(C(=O)NCc4ccc(F)cc4)cc32)c1 -6%
CCCNc1ncnc2onc(C)c12 -20.7%
Cc1ccc(C(=O)n2nc(C)c(S(=O)(=O)N3CCOCC3)c2C)cc1 -16.5%
CC(C)c1cnc2c(c1SCC(=O)Nc1ccccc1C(F)(F)F)c(=O)n(C)c(=O)n2C -8.66%
COc1ccc(-n2nc(C(=O)Nc3ccccc3OC)c3c4ccccc4n(C)c3c2=O)cc1Cl -12.3%
Cc1ccc(CSc2nc(-c3cccs3)ccc2C#N)cc1 -15.3%
COc1cccc(-c2nn(C)c3sc(C(=O)NCCc4ccc(Cl)cc4)cc23)c1 -13.5%
Cc1nnc(SCc2ccc(Cl)cc2)c2cc3occc3n12 -9.76%
Cc1cccc(N2CCN(c3cc(C)nc4c(-c5ccc(Cl)cc5)c(C)nn34)CC2C)c1 (stereo not given) -7.88%
Cc1ccc(-n2nnnc2CNC(=O)c2ccccc2S(C)(=O)=O)cc1C -6.01%
Nc1nc(OCc2ccccc2)c2[nH]cnc2n1 1.48%
FC(F)(F)c1cc(-c2ccccc2)nc2cc(-c3ccc(Br)cc3)nn12 -1.83%
COc1ccc(-c2cn3nc(N4CCCC(C(=O)Nc5ccc(C)c(C)c5)C4)sc3n2)cc1 (stereo not given) -6.81%
